Measured values reported in PubChem BioAssay (NCI).
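Following 48 hours of exposure in 96-well plates, responses at five concentrations were used to interpolate endpoints linearly. GI50 is the concentration that inhibits growth by half.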 The source holds more than one record for some entries. The list is limited to them. The source may hold further records. For part of these data: The records of an entry repeat one measurement (runs, samples, wells, individuals or studies). Brackets tell where a record comes from. The letters are not those of the source and start again with each entry.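 TGI: total growth inhibition.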 For part of these data: Records of one sample usually come from different ranges of test concentrations, not given here; a value can be the end of its range.

Columns and labels:
Experiment in all cases: inhibition of tumour cell growth, NCI panel, 48 h
[1] = test system: RPMI-8226 leukemia
[2] = test system: COLO 205 colon
[3] = test system: LOX IMVI melanoma
[4] = test system: MCF7 breast
[5] = test system: SK-MEL-28 melanoma
[6] = test system: 786-0 renal
[7] = test system: EKVX NSCLC
[8] = test system: HCC-2998 colon
[9] = test system: HCT-15 colon
[10] = test system: HOP-62 NSCLC
[11] = test system: HOP-92 NSCLC
[12] = test system: IGROV1 ovarian
[13] = test system: MDA-MB-231 breast
[14] = test system: MDA-MB-435
[15] = test system: OVCAR-4 ovarian
[16] = test system: SF-268 CNS
[17] = test system: SK-OV-3 ovarian
[18] = test system: SN12C renal
[19] = test system: SR leukemia
[20] = test system: SW-620 colon
[21] = test system: TK-10 renal
[22] = test system: U251 CNS
[23] = test system: UACC-62 melanoma
[24] = test system: CCRF-CEM leukemia
[25] = test system: DU-145 prostate
[26] = test system: HCT-116 colon
[27] = test system: KM12 colon
[28] = test system: NCI-H23 lung
[29] = test system: NCI-H460 lung
[30] = test system: OVCAR-8 ovarian
[31] = test system: PC-3 prostate
[32] = test system: SF-295 CNS
[33] = test system: SK-MEL-2 melanoma
[34] = test system: SK-MEL-5 melanoma

## C/C=C(\CCC1NCCc2c1[nH]c1ccccc21)[Si](C)(C)C (centres undefined)
[1]
  TGI: 56.5 µM [sample A, 1 test] and 5.57 µM [sample B, mean of 2 tests]

## CC(=O)[O-].[Ni].c1ccc(/C(=N\Nc2ccccn2)c2ccccn2)cc1
[2]
  TGI: 86.5 nM and 15.8 µM

## c1ccc2c(Nc3ccc(Oc4ccc(Nc5c6ccccc6nc6ccccc56)cc4)cc3)c3ccccc3nc2c1
[3]
  TGI: 30.6 nM and 2.39 µM
[4]
  TGI: 333 nM and > 37.6 µM
[5]
  TGI: 4.31 µM and 390 nM

## Nc1nc(Cl)c(N=Nc2ccc(Cl)cc2)c(NCC2(CO)CC(OCc3ccccc3)C2)n1 (centres undefined)
[6]
  TGI: 42.1 µM [sample A, mean of 2 tests] and > 79.4 µM [sample B, mean of 2 tests] and 6.85 µM [sample C, mean of 2 tests]
[7]
  TGI: 7.76 µM [sample A, mean of 2 tests] and > 100 µM [sample B, mean of 2 tests] and 15.5 µM [sample C, mean of 2 tests]
[8]
  GI50: 14.1 µM [sample A, mean of 2 tests] and > 95.2 µM [sample B, mean of 2 tests] and 4.65 µM [sample C, mean of 2 tests]
[9]
  GI50: 5.18 µM [sample A, 1 test] and > 88.6 µM [sample B, mean of 2 tests] and 4.18 µM [sample C, mean of 2 tests]
[10]
  GI50: 10.8 µM [sample A, mean of 2 tests] and > 100 µM [sample B, mean of 2 tests] and 8.84 µM [sample C, mean of 2 tests]
[11]
  TGI: 8.62 µM [sample A, mean of 2 tests] and > 100 µM [sample B, mean of 2 tests] and 10.3 µM [sample C, mean of 2 tests]
[12]
  GI50: 10.7 µM [sample A, mean of 2 tests] and > 85.9 µM [sample B, mean of 2 tests] and 4.83 µM [sample C, mean of 2 tests]
[13]
  TGI: 3.98 µM [sample A, mean of 2 tests] and > 100 µM [sample B, mean of 2 tests] and 24.1 µM [sample C, mean of 2 tests]
[14]
  GI50: 2.72 µM [sample A, mean of 2 tests] and > 74.9 µM [sample B, mean of 2 tests] and 13.1 µM [sample C, mean of 2 tests]
[15]
  TGI: 9.47 µM [sample A, mean of 2 tests] and > 100 µM [sample B, mean of 2 tests] and 17.5 µM [sample C, mean of 2 tests]
[16]
  GI50: 9.33 µM [sample A, mean of 2 tests] and > 100 µM [sample B, mean of 2 tests] and > 33.5 µM [sample C, mean of 2 tests]
[5]
  GI50: 51.4 µM [sample A, mean of 2 tests] and > 100 µM [sample B, mean of 2 tests] and 9.19 µM [sample C, mean of 2 tests]
[17]
  GI50: 8.61 µM [sample A, 1 test] and > 100 µM [sample B, mean of 2 tests] and 7.71 µM [sample C, mean of 2 tests]
[18]
  GI50: 2.88 µM [sample A, mean of 2 tests] and > 100 µM [sample B, mean of 2 tests] and 3.61 µM [sample C, mean of 2 tests]
[19]
  TGI: 9.17 µM [sample A, 1 test] and > 100 µM [sample B, 1 test] and > 100 µM [sample C, 1 test]
[20]
  GI50: 17.6 µM [sample A, mean of 2 tests] and > 85.3 µM [sample B, mean of 2 tests] and 4.87 µM [sample C, mean of 2 tests]
[21]
  GI50: 12.4 µM [sample A, 1 test] and > 50.6 µM [sample B, mean of 2 tests] and 4.7 µM [sample C, mean of 2 tests]
[22]
  GI50: 8.25 µM [sample A, mean of 2 tests] and > 100 µM [sample B, mean of 2 tests] and 12.5 µM [sample C, mean of 2 tests]
[23]
  GI50: 8.34 µM [sample A, mean of 2 tests] and > 100 µM [sample B, mean of 2 tests] and 6.99 µM [sample C, mean of 2 tests]

## CCOCC(=O)N[C@H]1CCc2cc(OC(=O)COCC)c(OC)c(OC)c2-c2ccc(SC)c(=O)cc21
[24]
  TGI: 862 nM and 69.2 nM
[25]
  TGI: 76 nM and > 100 µM
[26]
  TGI: 1.35 µM and 17.9 µM
[27]
  TGI: 77 nM and > 100 µM
[13]
  TGI: 187 nM and > 100 µM
[28]
  TGI: 823 nM and > 100 µM
[29]
  TGI: 1.59 µM and > 100 µM
[30]
  TGI: 915 nM and > 100 µM
[31]
  TGI: 8.12 µM and > 100 µM
[16]
  TGI: 1.18 µM and > 100 µM
[32]
  TGI: 54.6 nM and > 100 µM
[33]
  TGI: 997 nM and > 100 µM
[34]
  TGI: 57 nM and 30.5 µM
[17]
  TGI: 955 nM and > 100 µM
[22]
  TGI: 904 nM and > 100 µM
